# Results as given in the BET-seq Pho4 binding data (Le et al. 2018).
# This is one part of the list. Values were computed here from the reads of four pooled replicates and scatter widely.
# Target: T1, Pho4 (S. cerevisiae) (UniProt P07270)
# T1 sequence: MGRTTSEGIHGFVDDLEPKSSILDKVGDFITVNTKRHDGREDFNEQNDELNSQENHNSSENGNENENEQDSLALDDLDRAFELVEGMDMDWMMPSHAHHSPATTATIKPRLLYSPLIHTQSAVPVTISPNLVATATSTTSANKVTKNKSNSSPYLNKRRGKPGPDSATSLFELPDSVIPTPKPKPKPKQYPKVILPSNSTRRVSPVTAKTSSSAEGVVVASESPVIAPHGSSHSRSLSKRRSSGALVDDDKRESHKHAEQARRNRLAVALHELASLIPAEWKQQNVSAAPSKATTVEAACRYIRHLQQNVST
# Experiment: relative binding free energy (BET-seq); higher = weaker binding
# Conditions: reference: library average
row,Sequence,relative binding free energy [kJ/mol]
1,TAGTTCACGTGATATT,1.59
2,TTTGACACGTGAATTA,1
3,GATTACACGTGATTTT,0.962
4,TTGTTCACGTGGAATG,0.92
5,TGCTTCACGTGATATT,0.753
6,TATGACACGTGCGTGG,-0.0837
7,CATGTCACGTGGTTAG,0.126
8,GACGACACGTGGGTTA,0.418
9,ATGGGCACGTGGGTCT,-0.669
10,CTAGTCACGTGGTGGA,0.209
11,CGCTACACGTGGGGTG,-0.502
12,GGTGTCACGTGGGGAT,0.46
13,TTGTACACGTGATTCA,0.46
14,GTTTGCACGTGCTTGA,-0.544
15,GGTTACACGTGTGCTT,0.586
16,AGGCACACGTGATAGT,0.586
17,GTAATCACGTGATTGT,0.628
18,ACTTTCACGTGTGTGG,1.26
19,GTGTTCACGTGTCGCT,1.17
20,AATATCACGTGGGTGG,-0.0418
21,TGACGCACGTGGGCGT,-1.21
22,TTGGGCACGTGGAATT,-0.0418
23,GATCTCACGTGGGATT,1.13
24,TTGAGCACGTGCGGTA,-0.628
25,TTTGTCACGTGGACAT,0.126

row,Sequence,relative binding free energy [kJ/mol]
1,CTGGGCACGTGAAGAG,0.335
2,ATGTTCACGTGGGCAT,-0.167
3,TGGTACACGTGAGACG,1.38
4,TAATCCACGTGAAGGG,1.8
5,TAGAACACGTGGTAAG,0.0837
6,GTGAACACGTGAGAGG,1.05
7,TTACTCACGTGTTTAT,1.05
8,AGGGACACGTGCTGGG,-0.502
9,GAGGGCACGTGCTTGT,-0.0837
10,GTCGTCACGTGTTTCT,1.3
11,TAATCCACGTGGGTAG,-0.335
12,GTTTGCACGTGAAAAG,0.586
13,ATCGTCACGTGTAGTA,0.251
14,ACGGGCACGTGAGGGA,0.167
15,TGTTACACGTGGTGGT,0.0837
16,AGAGGCACGTGGGGAC,-0.837
17,TTAATCACGTGTTTAT,0.502
18,GAATTCACGTGTTGGG,1.46
19,GGTAACACGTGTACGT,-0.0837
20,GCGAGCACGTGAGGGG,0.753
21,GGAGGCACGTGGTTTC,-0.0837
22,GTATACACGTGTTAGT,0.0837
23,GGAGGCACGTGGAGAG,0.335
24,AACGGCACGTGGGTGT,-0.837
25,GAGGTCACGTGATAAG,1.42

row,Sequence,relative binding free energy [kJ/mol]
1,TGGTGCACGTGACGAT,1.09
2,AGATCCACGTGGGCGT,0.628
3,TATAGCACGTGAGTGT,0.0837
4,AGATTCACGTGTTTTG,1.38
5,GTACGCACGTGCGGTG,-0.167
6,CAGTTCACGTGTGTAT,0.92
7,CGGGTCACGTGATCGT,0.92
8,TACGTCACGTGTTGAT,0.126
9,AGTTTCACGTGAACTT,1.34
10,GGTGTCACGTGTATGG,0.628
11,GGGGACACGTGAAGCT,1.46
12,TTTGGCACGTGACAGT,0.0418
13,TTAATCACGTGATGTA,0.46
14,CGAGTCACGTGTTAAT,0.962
15,ATTCCCACGTGGGGTG,-0.753
16,ATGATCACGTGCGTTG,0.126
17,AAGTTCACGTGCGAGT,1.05
18,CTAATCACGTGGAGGG,0.962
19,AGTTTCACGTGGAGTC,1.34
20,ATTTACACGTGGCGGT,0.251
21,CTGGGCACGTGGAGGT,-0.293
22,TTGAGCACGTGGATTC,0
23,TAGGGCACGTGTTTCT,-0.209
24,TATCACACGTGCGGGT,0.335
25,TTTATCACGTGCGTGA,-0.0837

row,Sequence,relative binding free energy [kJ/mol]
1,GGATGCACGTGGGATT,-0.209
2,AAGGTCACGTGTCTGA,0.335
3,GTGTTCACGTGTAGAC,1.26
4,GGAGACACGTGATCGG,0.628
5,TTTTGCACGTGCAAGT,0
6,TTCTTCACGTGGACGT,1.59
7,AGTGACACGTGCGAGG,-0.293
8,GTGTTCACGTGCAAGG,0.669
9,GCGGCCACGTGTGGTT,0.251
10,TGGGACACGTGCATGC,0.335
11,AGCATCACGTGTGTTG,0
12,TTTTTCACGTGTTATC,0.962
13,TTGTCCACGTGTAGCG,1.09
14,CTTGACACGTGGGATG,-0.209
15,TAATGCACGTGTAAGA,0.879
16,TGCTACACGTGAGGGT,1.46
17,GCGTACACGTGATGGG,0.92
18,CTGGTCACGTGGGGCG,-0.167
19,GAGTTCACGTGTGCAG,0.879
20,AGTCGCACGTGGGGAC,-0.586
21,TGTTACACGTGAATAA,1.42
22,GTTAACACGTGGTTCA,0.46
23,GGGCTCACGTGTTATA,1.34
24,TACGTCACGTGTGCGG,0.209
25,TTTTGCACGTGGGAGC,-0.167

row,Sequence,relative binding free energy [kJ/mol]
1,AATTGCACGTGTTGTG,-0.126
2,GTGGGCACGTGGAGAG,0
3,GACTTCACGTGTGTTG,1.38
4,AGTTTCACGTGATAGT,1.13
5,TTTGGCACGTGATTGG,0.0837
6,TCTGGCACGTGCGATT,-0.0418
7,AATATCACGTGAGTGA,1.3
8,AGTCTCACGTGGATAG,1.17
9,GGGGACACGTGTATAG,0.669
10,TTACCCACGTGGGTGG,-0.628
11,GCGGGCACGTGAGAGT,1.05
12,TTTGGCACGTGCGACG,-0.753
13,TTTTTCACGTGAAATA,2.18
14,CTGTTCACGTGGGCGA,0.753
15,ATTGTCACGTGCGCTT,0.167
16,TTGGGCACGTGTTGTC,-0.209
17,TCGTGCACGTGGTGAC,0.251
18,ACAGACACGTGAGGGT,0.544
19,TTAGTCACGTGAGGAG,1.3
20,TGTGCCACGTGCTATT,-0.0837
21,CTTTTCACGTGTGGTT,0.669
22,TCGTTCACGTGTGTCT,1.21
23,GGGTGCACGTGACTGT,0.335
24,GTTAGCACGTGAAGTT,1.46
25,GCACTCACGTGGTTGT,0.753

row,Sequence,relative binding free energy [kJ/mol]
1,AGTGTCACGTGGTCAA,-0.669
2,TTTTGCACGTGTGGCC,0.753
3,ATAGTCACGTGGGTAT,0
4,GAGTTCACGTGTTGTC,1.55
5,TTTTACACGTGTTCAT,0.795
6,CTGCGCACGTGGCTGG,-0.46
7,TGTCACACGTGATGTT,0.46
8,AGAGTCACGTGTGGTA,0.0837
9,TATTCCACGTGGAGGG,-0.126
10,TGTCGCACGTGACGTT,-0.0418
11,TTGTTCACGTGTTATC,1.05
12,TGTGTCACGTGAATTG,1.26
13,GGCGGCACGTGTTTCG,-0.293
14,ATATACACGTGATTTT,0.418
15,AGGGCCACGTGGGGAG,-0.669
16,GTGTTCACGTGCCTGT,1
17,TAAATCACGTGTATTT,0.46
18,GTCAGCACGTGGGATA,-0.209
19,CTGTTCACGTGGTTGA,1.09
20,ATGTTCACGTGGGCCG,0.377
21,TGTACCACGTGGTATT,-0.628
